Laboratory results: publication PMC4336329 (PLoS ONE, 2015)
The whole screen tested about 310,000 compounds, of which about 2,200 (0.71%) showed an effect of 50% or more. Effects have a minus sign here. Some of the results follow.

The compounds below were run against human ether-à-go-go-related gene (hERG) potassium channel (human, UniProt Q12809) (assay: primary screen, population patch clamp on CHO cells stably expressing hERG).
Sequence of human ether-à-go-go-related gene (hERG) potassium channel (Q12809 whole entry, looked up): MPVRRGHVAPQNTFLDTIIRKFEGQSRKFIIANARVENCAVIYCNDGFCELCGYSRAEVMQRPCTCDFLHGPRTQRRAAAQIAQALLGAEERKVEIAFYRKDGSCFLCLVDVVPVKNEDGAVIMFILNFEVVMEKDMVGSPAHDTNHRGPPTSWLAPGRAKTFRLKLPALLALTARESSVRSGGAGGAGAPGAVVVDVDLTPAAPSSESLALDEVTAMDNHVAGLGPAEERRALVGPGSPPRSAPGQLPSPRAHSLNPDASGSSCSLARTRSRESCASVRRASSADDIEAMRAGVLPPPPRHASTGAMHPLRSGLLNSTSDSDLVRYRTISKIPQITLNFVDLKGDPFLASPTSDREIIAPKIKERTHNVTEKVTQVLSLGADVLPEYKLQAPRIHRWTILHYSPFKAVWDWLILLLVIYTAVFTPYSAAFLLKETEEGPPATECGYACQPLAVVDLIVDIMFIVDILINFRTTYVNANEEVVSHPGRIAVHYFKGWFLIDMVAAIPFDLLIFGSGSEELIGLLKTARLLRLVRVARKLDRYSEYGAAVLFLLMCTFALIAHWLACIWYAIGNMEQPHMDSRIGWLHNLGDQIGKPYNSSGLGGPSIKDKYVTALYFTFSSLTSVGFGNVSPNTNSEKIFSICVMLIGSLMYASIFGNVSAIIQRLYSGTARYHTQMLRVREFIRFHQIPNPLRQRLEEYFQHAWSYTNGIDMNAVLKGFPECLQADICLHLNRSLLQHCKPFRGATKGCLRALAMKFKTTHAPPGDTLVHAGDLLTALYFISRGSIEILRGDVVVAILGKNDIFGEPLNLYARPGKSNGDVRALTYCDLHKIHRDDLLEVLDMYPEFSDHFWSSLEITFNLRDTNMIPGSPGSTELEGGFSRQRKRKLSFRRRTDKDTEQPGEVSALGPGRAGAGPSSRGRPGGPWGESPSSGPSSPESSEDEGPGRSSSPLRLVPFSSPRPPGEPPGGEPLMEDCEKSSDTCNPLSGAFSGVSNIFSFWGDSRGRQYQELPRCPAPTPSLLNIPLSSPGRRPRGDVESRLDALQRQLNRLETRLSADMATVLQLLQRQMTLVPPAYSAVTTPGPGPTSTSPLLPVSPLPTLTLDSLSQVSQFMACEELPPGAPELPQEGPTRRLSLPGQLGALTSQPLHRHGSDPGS

SMILES	hERG current change (%, negative = inhibition) at 1uM
CCN(C(=O)COC(=O)/C=C/c1ccccc1)C1CCCCC1	0.077%
Cc1cccc(-c2ccc(C=Nc3c(C)n(C)n(-c4ccccc4)c3=O)o2)c1	8.52%
Cc1ccc(S(=O)(=O)CC(=O)c2ccc([N+](=O)[O-])cc2)cc1	5.39%
O=S(=O)(c1cnccc1N1CCN(CCO)CC1)N1CCCCC1	9.78%
Cc1ccc(S(=O)(=O)NCCC(=O)Nc2nnc(C3CC3)s2)cc1C	16%
COc1ccc(Cc2nc3ccc(C(=O)N4CCN(C)C(C)C4)cc3o2)cc1OC (stereo not shown)	1.76%
CN1C(=O)[C@@H]2[C@@H]3C[C@@H]([C@H]4ON=C(c5ccccc5OCC#N)[C@@H]34)[C@@H]2C1=O	1.36%
Cc1cccc(N(C(=O)Cn2nnc3ccccc32)C(C(=O)NCc2ccco2)c2ccncc2)c1 (stereo not shown)	4.42%
COC(=O)C1=C(c2ccc(-c3ccccc3)c(F)c2)C[C@@H]2CC[C@H]1N2C(=O)NCCOc1ccccc1	9.04%
Cc1ccc(P(=Nc2ccccc2)(N2CCOCC2)N2CCOCC2)o1	-0.807%
O=C1C=CC(=O)N1c1ccc(I)cc1Cl	13.5%
CC(=O)N/N=C/c1cc(C(C)(C)C)cc(/C=N/NC(C)=O)c1O	15.2%
Cn1c(O)c(C=NCCN2CCN(C(=O)Nc3ccccc3)CC2)c(=O)n(C)c1=O	17.5%
Cl.O=[N+]([O-])c1cc(CN(CCO)CCO)ccc1O	3.69%
NS(=O)(=O)c1ccc(N/C=C\C(=O)c2ccc(F)cc2)cc1	11.4%
CCOc1c(Cl)cc(CNCC(O)c2ccccc2)cc1OC.Cl (stereo not shown)	5.12%
COc1ccc(/C=C2\CC/C(=C\c3ccc(OC)cc3OC)C2=O)c(OC)c1	-1.76%
CC(CSc1nnnn1-c1ccccc1)Cn1c(N2CCN(C)CC2)nc2c1c(=O)[nH]c(=O)n2C (stereo not shown)	2.1%
Cc1cc(OC(=O)c2cc(Br)ccc2Cl)c([N+](=O)[O-])c(=O)[nH]1	6.76%
O=C(Cc1cccc2ccccc12)NCC(=O)Nc1ccccc1F	8.74%
COc1ccccc1CC(=O)N(CCC1=CCCCC1)c1c(N)n(Cc2ccccc2)c(=O)[nH]c1=O	9.44%
Cc1[nH]c(=O)[nH]c(=O)c1S(=O)(=O)NCC12CC3CC(CC(C3)C1)C2	0.34%

SMILES	hERG current change (%, negative = inhibition) at 1uM
CC[C@H](C)[C@H](NC(N)=O)C(=O)Nc1ccc(OC)c(Cl)c1	16.3%
CC(Oc1cc(-c2ccccc2)cc2ccccc12)C(=O)N1CCOCC1 (stereo not shown)	6.22%
CN(C)Cc1ccc(CNC(=O)c2ccc(Cl)c(S(=O)(=O)NC3CC3)c2)cc1	8.79%
COc1ccc(C(=O)C2CCCN(C(=O)c3cccc(N(C)C)c3)C2)cc1OC (stereo not shown)	11.5%
C=CCOC(=O)Cn1cnc2c(sc3nc(C)cc(C)c32)c1=O	13.5%
CC(Sc1nc2ccc(C(=O)c3ccccc3)cc2[nH]1)C(=O)O (stereo not shown)	12.2%
CSCCC(NC(=O)c1ccc(Cl)cc1Cl)C(=O)OC1CCCCC1=O (stereo not shown)	10.7%
Cc1ccc(C2=NC3(CCCCC3)NC2=S)cc1	6.21%
CCCOc1ccc(C(=O)Nc2ccc(S(=O)(=O)N3C[C@@H]4C[C@@H](C3)c3cccc(=O)n3C4)cc2)cc1	7.93%
Cn1c(=O)c(=O)n(C)c2cc(S(=O)(=O)N3CCN(c4ccccc4F)CC3)ccc21	7.12%
O=C(N/N=C/c1ccccc1O)c1cc(=O)[nH]c2ccccc12	13.9%
Cc1cc(Cl)ccc1NC(=S)NCc1ccccc1Cl	13.4%
COc1ccc(OC)c(S(=O)(=O)Nc2cc3c4c(c2)CC(=O)N4CCC3)c1	7.91%
Cc1ccc(C2(C)NC(=O)N(CC(=O)Nc3ccc(N4CCOCC4)cc3N3CCOCC3)C2=O)cc1 (stereo not shown)	6.66%
N#Cc1cc(-c2ccccc2)oc1NC(=O)c1ccco1	-4.5%
COc1cc(OC)c(NS(=O)(=O)c2cc(C(=O)OCC(=O)NCC3CCCO3)ccc2OC)cc1Cl (stereo not shown)	-7.5%
CC(=O)Oc1ccc(/C=N/NC2=NS(=O)(=O)c3ccccc32)cc1	15.1%
C=CCn1cc(C(=O)NCCOC)c(=O)c2cc(S(=O)(=O)N(CC)CC)ccc21	5.14%
Br.COc1cccc(C(=O)Cn2c(NCCCO)nc3ccccc32)c1	11.3%
Cc1cc(C)n2nc(CNS(=O)(=O)c3cccc([N+](=O)[O-])c3)nc2n1	17.6%
O=C1CSC(=NC(=O)c2ccccc2)N1	4.77%
